Test results published in the supplement of paper PMC3334620.
The full ranking holds about 33,000 sequences; the median of “E-score (-0.5 to 0.5)” is about -0.016, and the highest 2% start at about 0.31. This is one part of the list.

target: Cst6 (UniProt P40535); assay: PBM E-score (8-mer binding enrichment) (E-score (-0.5 to 0.5)); higher = stronger / more preferred TF binding; most listed sequences are background and not binding sites; details: protein concentration: 200 nM; construct: GST-DNA-binding domain
Procedure: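 Universal 'all 10-mer' protein binding microarrays (Agilent AMADID 015681) probed with GST-tagged S. cerevisiae TFs (full-length or DBD) made by in vitro transcription/translation (PURExpress), about 100-200 nM. Bound TF was detected with fluorescent anti-GST. Each ungapped 8-mer (which stands for itself and its reverse complement) is scored by the PBM enrichment score (E-score), a modified Wilcoxon-Mann-Whitney statistic from -0.5 to +0.5, computed with the Universal PBM Analysis Suite. Scale: above 0.35 generally sequence-specific binding.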

Sequence | PBM E-score
CTAGATAG | -0.197
CCGATCGA | 0.046
AGTCACGC | -0.07
TCCCAGGA | -0.272
GATAGAAA | 0.0795
CGTCCAGA | -0.109
GCATATCC | -0.156
ACGTGTAC | 0.113
CTCGCCGA | -0.136
AGTATAAT | 0.144
ATCGGATC | 0.0363
AGGCGTTA | 0.0945
CAATCCAA | 0.0209
CAAAGATA | 0.202
TACTACCA | -0.209
GACTACTC | -0.00616
CCGTGCAG | 0.153
ATCTTGCA | 0.199
CCGGACAC | -0.327
GAAGCACC | -0.0259
CCTGAATA | 0.0941
CACACAGC | 0.157

Sequence | PBM E-score
AATATTGC | 0.257
AATGACGA | 0.451
CCTTGTCA | -0.097
AGCGCTCA | -0.15
AAATGTGA | 0.121
AGATACTG | 0.112
ACTCTCAC | -0.0237
CATAATAA | 0.267
AATTGCGT | 0.315
ACCGTATA | -0.0183
AGACGGAT | 0.122
ATAGAAAA | 0.145
AAGCCGCT | -0.0568
CAGAGGCA | -0.0873
CGAATTCG | 0.00769
GAACGCGA | -0.0165
AGAGCAGA | -0.00156
ATATGTAC | 0.145
CGCGCACC | 0.0102
AATATTTA | 0.305
ATGCACTG | -0.087
AAATTCGA | -0.0273

Sequence | PBM E-score
GGCATTGA | 0.0677
AGATCGAC | -0.0171
TCCACACA | 0.101
CTAAAAAG | 0.0907
CAGTGTCG | -0.156
GCCAAGGC | -0.223
CCAAATGA | 0.191
AGCTGGGC | -0.301
GCAGTCAA | -0.184
CGAACGCC | -0.107
AGCGGAAT | -0.0286
GATCATTA | 0.215
ACACGGTC | -0.0984
AGTTACAG | 0.0901
CACGATAG | -0.00952
CCAACACC | -0.294
AAAGTGTG | 0.115
AAAACTCC | -0.175
GTCGTAAA | 0.159
AGAACAAT | 0.25
CGTATAGC | 0.0302
ATTGGGAG | -0.0503

Sequence | PBM E-score
ACCAAAGA | 0.143
TAGCAATA | 0.165
CACTACTC | 0.0119
CGTATATA | 0.269
CTCACAAG | -0.00284
GAGATCAA | 0.16
AAGCTGAT | 0.149
CCTATAGA | -0.102
CCCCGAAG | -0.0458
ATGTTTCA | 0.0829
GAAGGGAC | -0.37
AAGACCAT | -0.0598
CCGGGACC | -0.235
GGATCAAA | 0.112
AAAGACGA | 0.163
GGATCGCC | -0.0588
GACAGGTA | -0.0506
AGGGAGAG | -0.306
CACAGCAC | -0.027
ACAAGTAC | -0.0561
